Over roughly 1,800 sequences, “median log2 fold change of GCK-ALFA target abundance (FLAG IP / Myc IP barcode read proportion)” has its median near 0.14; the lowest 2% begin near -0.84. The list shows a part of the results.
B1: traf2_out_3_77_2274 (protein)
chain: SMKKEEIREKLDEATTLAIASLAVNAINNPEKAEEFREMARIVHRARAIAKEKGKEEELLPLIEEAKEAADKLNEGDESALEKLKEIVKKIGELAEKWEK
B2: traf2_out_14_166_1279 (protein)
chain: MTPEEIERIRKIVDELEPLTDAAVARARAILAANRGRLSPEDLARVEELLALAARNIGSSAINALREIAEIFRAAGLEAAAAEVQALADELEEKLKELNK
B3: traf2_out_15_48_1357 (protein)
chain: TTEELRKTAREINDLIDATLDEVAAELRALLPEAPEENKPLLEEAIDVASNHRSINDTIALLDEAIARSDPELKARLEALRDRLLATKKEASKLFNEALK
B4: traf2_out_18_117_1797 (protein)
chain: SELEEAKKEFEKTAEEFEKELEEAQRIATKLIEKYPKALPPEAMDAIVELGEVKRRFQQLKQEAEANPNNLEKQKEIVEELKKLTEKMKEIREKLEKILA
B5: traf2_out_20_38_2044 (protein)
chain: VTIEEAAANIEKLAPQFFAIADEVDELVARLRAEGLSDEEIADRLEEHAVARLKSLGDEEGAEELRETMAELRAAGASLRDVARAAVRAMSTALDKKANE
B6: traf2_out_11_169_872 (protein)
chain: KEAEKNRKLNDFALELNDEAKEKLKEFALKLAKELGLDVEEVKKIFEENKNKSLSAVAAALIKYFKEKGKEDAAAKIEKKYEELKEEINKKTSEKIKELE
B7: traf2_out_18_54_1952 (protein)
chain: EELERLKKEAREVIEKWRDEVLALVADDPAAQAMVEEMVKRVLEALETEGLWAAVTVFRRLSTELVAAITDPAKADAVGDIAADARNRLAKLALEYEKAK
B8: traf2_out_16_104_1417 (protein)
chain: AAAADAAFAAIIAGLEAIAEEANRLANEAYKLMLEASPEKRKELSDLLVRASELRRRALEAAEAARAGRAAGADLAEAEATLAELEAELKELKKELEKLK
B9: traf2_out_6_3_2514 (protein)
chain: SDEEERERNERALEEASEMSLETLKRAADTALAELEKLVKDPNATETDVLAANSFLNTLLEILRRHAEKHPEEREEAEAYAAEKEKRAAELMAEWKAKRA
B10: traf2_out_18_157_1816 (protein)
chain: MSDEELLRAARLAQEVEDRAEELVAATAGKSLEEIRAATLAWVEEAHELLAELPAGTRRHILTSAARRLVERLAREQGLSPEEAAALLAEALARIEELLA
B11: traf2_out_16_177_1448 (protein)
chain: ELDKVMDRLVILSELKRAALLIVEGKEEEAEKHLKRARELAEEAGDEEGLKLLEEIEKLAKENTPEAKKRLKELARELQKRAGELADEAERLIKERAEKE
B12: traf2_out_11_155_738 (protein)
chain: EEKLKLNQEMNDKINDIFDEARKEADAILEETAKKHPEHKEELEKLKEETKGFSYRSYIRSAIEKLKELGLEEEAKKLEELLEETQKKANEVVKETEEKL
B13: traf2_out_11_155_672 (protein)
chain: SKKQELNNELVDEITEISDKLKEEVKKILEEAAKEHPEHKEELEKVIESSKTLSGRSFARRAAQLFKELGLEEYAKKVEKLLEEAQKKMNEVVKKYEKLL
B14: traf2_out_11_155_668 (protein)
chain: EEKQKLNNELVSKVTEVSDELKEEVRAILEEAAAAHPEHAAELAAVIESGKTLSGRSFAQLAAQKFEELGLEEEAKRVRELLEEAQKKMNEIVKKYEKKL
B15: traf2_out_6_156_2398 (protein)
chain: MVEEILKETKEELKKLIKELSKASEEKKIKYINEIAGTVYRGLQKLREAGASVEEIKEFGEKIIKFIEEELKKEGIDESTKNLILSSVNAVVDVAIEAAK
B16: traf2_out_11_169_851 (protein)
chain: EEEEKNRKIIDKALELEDKAKAELKAHALALAKAAGLDTAAVEAIFAANEGKSLSAIAAALIAWFRAQGKEDAAAAVEAKYEELKDKINKEMTAFLKELE
B17: traf2_out_13_95_1062 (protein)
chain: SRELAKKINELADEAEAKVLALLDAAKAALADDPEAVAALDEARAAAKTKGISAAIHVLREAKAANPAHAAEWDALIAQLEAIRTELGRKVAELIKEEKE
B18: traf2_out_18_117_1777 (protein)
chain: ARREALIARAEELAERLDEAASRLGKVFLENYEKLSPEEKSEIMDVLADLTAVRRRALELIQLIERGEVPVEEAEARLRELEVEAEAAIARAEKRIKEIK
B19: traf2_out_12_187_970 (protein)
chain: SVEEELIRAAEEAIRQALKALEEAAPEREEFKEFLKRLKEVEELLKKHPSVAADAAVAASLILRAVRLFEDGLPQEEIDAAAEAARKELEELLAKLKALQ

Molecular target: T1, TRAF2, Q12933
T1 chain: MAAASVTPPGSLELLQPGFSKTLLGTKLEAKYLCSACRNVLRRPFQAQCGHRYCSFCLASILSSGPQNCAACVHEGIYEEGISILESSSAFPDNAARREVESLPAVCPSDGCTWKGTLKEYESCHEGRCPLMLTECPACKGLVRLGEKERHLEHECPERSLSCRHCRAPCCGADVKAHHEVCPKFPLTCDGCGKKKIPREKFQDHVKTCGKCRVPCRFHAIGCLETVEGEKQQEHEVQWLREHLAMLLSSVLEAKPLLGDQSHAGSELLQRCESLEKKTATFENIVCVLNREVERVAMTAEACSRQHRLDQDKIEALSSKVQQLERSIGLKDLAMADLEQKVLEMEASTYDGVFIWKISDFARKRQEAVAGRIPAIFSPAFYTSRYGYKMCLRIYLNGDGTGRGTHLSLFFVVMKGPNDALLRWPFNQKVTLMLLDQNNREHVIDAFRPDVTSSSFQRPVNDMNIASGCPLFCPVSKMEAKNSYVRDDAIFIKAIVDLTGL
Assay: median log2 fold change of GCK-ALFA target abundance (FLAG IP / Myc IP barcode read proportion) (log2 ratio); each designed protein is fused to an ALFA-tag nanobody in HEK293 cells to bring the named protein to FLAG-tagged glucokinase (GCK); Myc marks an untargeted standard; higher = target protein stabilised (more abundant)
Details: target protein: 3xFLAG-MCP-GCK-ALFA reporter; HEK293 landing pad (RPLP)
How it was run: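 An ALFA-nanobody-fused binder library was recombined into HEK293 landing-pad cells and induced with 2 μg mL^−1 doxycycline. Cells were transfected with a plasmid expressing a FLAG-tagged target and a Myc-tagged standard. After 48 h, lysates underwent anti-FLAG and anti-Myc immunoprecipitation, and circular RNA barcodes were reverse transcribed, amplified and sequenced. Target abundance is the per-binder median log2 ratio of FLAG to Myc barcode read proportions. Barcodes needed ≥10^−7 proportion in both replicates, binders ≥3 barcodes per replicate, and a 10^−6 pseudocount was added; the two replicates were pooled.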

Q: How did the “median log2 fold change” value turn out when B1 was run?
A: 0.354

Q: B2 was tested. Which “median log2 fold change” value did it give?
A: 0.292

Q: With B3 as the binder, how does the “median log2 fold change” value read?
A: 0.269

Q: Which “median log2 fold change” value does the source give for B4 here?
A: 0.359

Q: For B5, which “median log2 fold change” value is on record?
A: 0.255

Q: For B6, which “median log2 fold change” value is on record?
A: 0.289

Q: B7 was tested. Which “median log2 fold change” value did it give?
A: 0.266

Q: How did the “median log2 fold change” value turn out when B8 was run?
A: 0.316

Q: For B9, which “median log2 fold change” value is on record?
A: 0.207

Q: How did the “median log2 fold change” value turn out when B10 was run?
A: 0.216

Q: Which “median log2 fold change” value does the source give for B11 here?
A: -0.176

Q: Which “median log2 fold change” value does the source give for B12 here?
A: 0.463

Q: For B13, which “median log2 fold change” value is on record?
A: 0.207

Q: How did the “median log2 fold change” value turn out when B14 was run?
A: 0.313

Q: For B15, which “median log2 fold change” value is on record?
A: 0.175

Q: For B16, which “median log2 fold change” value is on record?
A: 0.265

Q: With B17 as the binder, how does the “median log2 fold change” value read?
A: 0.0801

Q: How did the “median log2 fold change” value turn out when B18 was run?
A: 0.26

Q: How did the “median log2 fold change” value turn out when B19 was run?
A: 0.26
